These are yes or no findings as the source states them, for the method shown. In cells and extracts the contact can be indirect. Some binding calls cover weakened binding; strength is not graded here. For part of these data: Tags and fused reporters may be left off the sequences shown.
Tests used:
Assay in all cases: co-IP; HEK293T cells co-transfected with the tagged expression plasmids; whole-cell extracts in 50 mM Tris pH 7.4, 150 mM NaCl, 1% Nonidet P-40, 0.5% deoxycholate; primary antibody at 4 °C overnight, Protein G Sepharose 4-6 h; western blot with anti-tag mAbs (for bPIAS with bRel: precipitated with anti-Flag, blotted with anti-HA)
[1] = molecular target: human PIAS2, full length, Myc-tagged (human) (UniProt O75928)
[2] = molecular target: T1, human PIAS3, full length, Myc-tagged (human) (UniProt Q9Y6X2)
T1 sequence: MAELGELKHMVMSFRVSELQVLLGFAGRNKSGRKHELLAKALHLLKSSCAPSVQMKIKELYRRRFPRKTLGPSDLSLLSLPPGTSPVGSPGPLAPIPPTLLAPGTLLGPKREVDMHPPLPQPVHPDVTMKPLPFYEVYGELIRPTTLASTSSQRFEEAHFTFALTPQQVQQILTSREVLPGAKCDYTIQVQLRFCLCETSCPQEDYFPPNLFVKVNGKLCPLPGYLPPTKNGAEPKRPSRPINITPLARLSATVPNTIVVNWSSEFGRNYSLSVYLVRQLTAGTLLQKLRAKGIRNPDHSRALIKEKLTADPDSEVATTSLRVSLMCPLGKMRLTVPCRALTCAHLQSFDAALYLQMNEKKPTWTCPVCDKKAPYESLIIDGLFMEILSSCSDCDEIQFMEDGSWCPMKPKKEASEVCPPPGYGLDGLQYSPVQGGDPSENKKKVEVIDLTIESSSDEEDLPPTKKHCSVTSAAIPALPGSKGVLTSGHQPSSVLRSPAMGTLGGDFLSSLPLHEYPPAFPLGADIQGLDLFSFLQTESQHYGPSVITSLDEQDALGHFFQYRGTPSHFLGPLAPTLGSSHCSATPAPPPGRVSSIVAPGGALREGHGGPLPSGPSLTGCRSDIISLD

Protein sequences, listed by entry. Tags and fused reporters are not part of them.
UniProt O75928: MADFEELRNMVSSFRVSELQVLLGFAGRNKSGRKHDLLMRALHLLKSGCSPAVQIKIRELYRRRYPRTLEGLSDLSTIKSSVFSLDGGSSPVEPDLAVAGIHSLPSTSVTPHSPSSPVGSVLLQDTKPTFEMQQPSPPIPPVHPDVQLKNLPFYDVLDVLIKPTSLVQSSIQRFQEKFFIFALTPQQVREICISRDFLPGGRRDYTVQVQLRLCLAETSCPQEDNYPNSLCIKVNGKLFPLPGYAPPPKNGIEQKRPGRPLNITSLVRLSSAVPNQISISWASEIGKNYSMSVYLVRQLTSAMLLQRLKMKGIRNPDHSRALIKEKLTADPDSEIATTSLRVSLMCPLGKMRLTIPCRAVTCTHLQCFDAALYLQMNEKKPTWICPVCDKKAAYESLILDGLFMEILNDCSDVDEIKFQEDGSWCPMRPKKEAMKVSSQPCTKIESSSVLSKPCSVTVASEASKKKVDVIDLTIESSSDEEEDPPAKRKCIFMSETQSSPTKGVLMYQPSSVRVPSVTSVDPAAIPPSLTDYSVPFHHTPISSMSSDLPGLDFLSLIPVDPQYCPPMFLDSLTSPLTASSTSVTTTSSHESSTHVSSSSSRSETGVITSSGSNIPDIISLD
UniProt O75925: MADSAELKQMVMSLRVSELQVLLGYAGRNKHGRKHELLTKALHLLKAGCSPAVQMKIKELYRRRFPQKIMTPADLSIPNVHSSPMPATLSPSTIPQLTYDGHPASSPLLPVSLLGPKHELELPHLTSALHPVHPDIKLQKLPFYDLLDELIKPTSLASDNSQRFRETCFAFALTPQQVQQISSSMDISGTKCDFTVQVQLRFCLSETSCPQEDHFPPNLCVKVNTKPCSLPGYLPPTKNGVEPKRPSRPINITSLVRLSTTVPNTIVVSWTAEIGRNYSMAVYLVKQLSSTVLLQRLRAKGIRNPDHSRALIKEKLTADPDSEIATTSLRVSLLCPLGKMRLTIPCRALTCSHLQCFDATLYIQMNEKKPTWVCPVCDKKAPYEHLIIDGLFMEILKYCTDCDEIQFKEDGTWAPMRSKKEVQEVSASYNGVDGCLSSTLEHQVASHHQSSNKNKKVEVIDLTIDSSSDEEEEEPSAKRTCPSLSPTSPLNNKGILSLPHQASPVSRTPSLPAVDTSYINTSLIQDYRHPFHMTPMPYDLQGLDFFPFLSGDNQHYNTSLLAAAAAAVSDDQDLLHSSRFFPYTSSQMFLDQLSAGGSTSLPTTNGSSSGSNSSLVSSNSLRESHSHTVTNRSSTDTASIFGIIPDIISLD
UniProt Q99836: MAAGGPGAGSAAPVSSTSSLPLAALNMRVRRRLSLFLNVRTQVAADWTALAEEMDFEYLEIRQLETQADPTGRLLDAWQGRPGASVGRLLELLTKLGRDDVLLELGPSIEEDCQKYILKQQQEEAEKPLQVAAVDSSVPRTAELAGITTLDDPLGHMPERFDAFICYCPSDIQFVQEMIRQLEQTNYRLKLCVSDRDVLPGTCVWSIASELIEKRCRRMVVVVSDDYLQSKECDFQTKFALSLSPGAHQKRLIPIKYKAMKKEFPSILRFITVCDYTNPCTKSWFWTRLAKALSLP
UniProt Q04206: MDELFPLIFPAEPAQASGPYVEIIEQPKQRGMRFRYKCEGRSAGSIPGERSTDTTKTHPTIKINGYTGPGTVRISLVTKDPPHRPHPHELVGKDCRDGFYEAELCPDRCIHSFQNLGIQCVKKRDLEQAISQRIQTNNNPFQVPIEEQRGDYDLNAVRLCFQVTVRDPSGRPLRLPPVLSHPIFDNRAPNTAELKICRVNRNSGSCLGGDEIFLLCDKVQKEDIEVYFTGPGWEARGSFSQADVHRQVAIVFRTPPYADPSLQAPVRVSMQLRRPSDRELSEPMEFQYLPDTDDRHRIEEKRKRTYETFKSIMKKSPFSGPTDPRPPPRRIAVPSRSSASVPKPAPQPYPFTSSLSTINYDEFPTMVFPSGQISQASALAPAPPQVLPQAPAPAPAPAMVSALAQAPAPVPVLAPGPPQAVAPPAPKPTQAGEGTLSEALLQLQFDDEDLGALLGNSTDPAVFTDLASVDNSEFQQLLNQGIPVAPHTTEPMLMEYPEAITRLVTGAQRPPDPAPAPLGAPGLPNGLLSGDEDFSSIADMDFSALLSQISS
UniProt Q8IUC6: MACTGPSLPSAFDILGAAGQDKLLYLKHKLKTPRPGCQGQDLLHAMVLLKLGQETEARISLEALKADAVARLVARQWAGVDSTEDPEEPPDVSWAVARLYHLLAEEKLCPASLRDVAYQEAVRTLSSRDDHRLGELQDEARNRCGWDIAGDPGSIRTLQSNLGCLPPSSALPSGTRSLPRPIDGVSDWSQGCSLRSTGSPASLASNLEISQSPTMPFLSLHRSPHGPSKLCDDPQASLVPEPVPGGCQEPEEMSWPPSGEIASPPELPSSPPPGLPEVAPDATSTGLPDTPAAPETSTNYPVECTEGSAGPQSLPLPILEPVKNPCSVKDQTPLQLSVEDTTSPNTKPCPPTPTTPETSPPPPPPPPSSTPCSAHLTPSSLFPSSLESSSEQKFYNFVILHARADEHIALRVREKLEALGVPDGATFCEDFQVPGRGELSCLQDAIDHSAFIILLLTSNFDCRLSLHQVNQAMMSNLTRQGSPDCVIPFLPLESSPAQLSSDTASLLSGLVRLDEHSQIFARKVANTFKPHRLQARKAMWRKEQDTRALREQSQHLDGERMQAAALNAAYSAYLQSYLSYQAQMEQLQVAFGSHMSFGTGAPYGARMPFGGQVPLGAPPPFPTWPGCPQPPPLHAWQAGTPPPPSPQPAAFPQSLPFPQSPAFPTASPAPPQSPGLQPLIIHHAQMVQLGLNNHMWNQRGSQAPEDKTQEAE

[3] = molecular target: human PIAS1, full length, Myc-tagged (human) (UniProt O75925)
[4] = molecular target: T2, human PIAS4, full length, Myc-tagged (human) (UniProt Q8N2W9)
T2 sequence: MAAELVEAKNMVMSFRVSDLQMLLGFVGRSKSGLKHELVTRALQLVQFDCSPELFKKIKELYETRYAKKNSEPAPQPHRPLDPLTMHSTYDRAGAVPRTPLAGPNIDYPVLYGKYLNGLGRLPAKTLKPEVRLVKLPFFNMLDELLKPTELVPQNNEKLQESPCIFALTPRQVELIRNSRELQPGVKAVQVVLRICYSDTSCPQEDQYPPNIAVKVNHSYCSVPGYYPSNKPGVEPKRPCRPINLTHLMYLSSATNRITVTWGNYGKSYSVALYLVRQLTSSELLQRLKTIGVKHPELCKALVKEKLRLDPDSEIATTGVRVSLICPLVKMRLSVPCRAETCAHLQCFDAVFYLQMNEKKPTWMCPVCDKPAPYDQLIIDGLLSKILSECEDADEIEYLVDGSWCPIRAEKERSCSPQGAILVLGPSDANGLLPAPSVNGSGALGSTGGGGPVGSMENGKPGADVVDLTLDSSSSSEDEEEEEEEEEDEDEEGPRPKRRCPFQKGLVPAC

| Substance | binding [1] | binding [2] | binding [3] | binding [4] |
| --- | --- | --- | --- | --- |
| human MyD88, full length, Flag-tagged (from UniProt Q99836 1-296) | no binding | binds | binds | binds |
| human NF-κB p65, full length, Flag-tagged (from UniProt Q04206 1-551) | – | binds | – | – |
| human TRIF (TICAM-1), full length, Flag-tagged (from UniProt Q8IUC6 1-712) | no binding | binds | binds | binds |

Reference: PMC5719053
